SMILES strings stand for the structures. About 200 (0.44%) of roughly 45,000 compounds were called active. Inconclusive results (about 7%) are left out. The call rests on the fitted dose curve; in most records, active means well fitted activation curve with a large enough effect; inconclusive means small, poorly fitted or top-dose-only effect; inactive means no such curve, though single readings can be large or run the other way. This is one part of the list.

The nature of the assay: qHTS of TDP-43 Inhibitors: NCGC Sytravon Library Screen. Further: 0% is about no effect; nearly all actives have a fitted effect of over 55% in size. The following applies: yeast TDP-43 toxicity rescue, BacTiter-Glo growth, 24 h; series mostly up to 46.1 µM; growth rescue (activation): at the top concentration. The essentials: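 TDP-43-expressing yeast, pregrown in raffinose, seeded at OD600 0.02 in galactose medium with compound for 24 hr at 30 deg C. Growth read by BacTiter-Glo luminescence, so rescue of toxicity appears as activation.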
`COc1ccccc1-c1nnc(SCC(=O)NCc2cccs2)n1N`: the “growth rescue (activation)” value is inactive: 7.43%.

For `O=C(COc1ccccc1Cl)NCCNC(=O)c1ccccn1`, the “growth rescue (activation)” value was inactive: 4.23%.

For the molecule `COc1ccccc1C(=O)Nc1c2c(nn1-c1cccc(C)c1C)CS(=O)C2` (stereo unspecified), the “growth rescue (activation)” value was inactive: 25.4%.

In the case of `Cc1ccc(OCCSc2nc(C)c(Cc3ccccc3)c(=O)[nH]2)cc1`, the “growth rescue (activation)” value was inactive: 4.88%.

For the molecule `COc1cccc(C(C(=O)NCC2CCCO2)N(C(=O)Cn2nnc3ccccc32)c2ccccc2C(C)=O)c1OC` (stereo unspecified), the “growth rescue (activation)” value is inactive: -12.8%.

On to `CC(C)c1onc(C(=O)Nc2sc3c(c2C#N)CCC3)c1[N+](=O)[O-]`, for which the “growth rescue (activation)” value was inactive: 11%.

As for `Cc1nn(-c2ccccc2)c(C)c1C(=O)OC(C)C(=O)Nc1ccc(C(N)=O)cc1` (stereo unspecified), the “growth rescue (activation)” value was inactive: 9.96%.

Take `O=C(CO/N=C/c1ccc(OC(F)F)cc1)N1CCc2ccccc21`: the “growth rescue (activation)” value is inactive: 5.64%.

For the molecule `CCOCc1cc(CN2CCN(c3ccccc3OC)CC2)c(O)c2ncccc12`, the “growth rescue (activation)” value is inactive: 0.423%.

For `Cc1nnc(NC(=O)C2CCN(S(=O)(=O)c3ccc(F)c(Cl)c3)CC2)o1`, the “growth rescue (activation)” value was inactive: 3.76%.

Take `Cc1csc(SCCn2c(N3CCN(c4ccccc4)CC3)nc3c2c(=O)[nH]c(=O)n3C)n1`: the “growth rescue (activation)” value is inactive: 12.9%.

Regarding `CCOc1ccc(CCNC(=O)c2ccc(CNS(=O)(=O)c3ccccc3)cc2)cc1OCC`, the “growth rescue (activation)” value is inactive: 16.9%.

For the molecule `COc1ccc(NC(=O)c2cccnc2N2CCOCC2)cc1`, the “growth rescue (activation)” value was inactive: -6.87%.

`O=C(Nc1nnc(-c2ccccc2F)s1)c1ccccc1F`: the “growth rescue (activation)” value is inactive: 1.33%.

Turning to `CCOC(=O)c1ccc(S(=O)(=O)NCCNCc2ccccc2)cc1`, the “growth rescue (activation)” value is inactive: -16.9%.

In the case of `COc1ccc(Nc2cc(C)nc3ncnn23)cc1`, the “growth rescue (activation)” value is inactive: -0.102%.

For `CC1(C(=O)NS(=O)(=O)c2cccc(F)c2)CCN1C(=O)Cc1ccc(-c2ccccc2)cc1` (stereo unspecified), the “growth rescue (activation)” value is inactive: 22.5%.

Regarding `COc1ccccc1CCC(=O)NNC(=O)c1ccc(Br)cc1`, the “growth rescue (activation)” value is inactive: 23.2%.

As for `CCOC(=O)N1CCN(Cc2nc3cc(NC(=O)c4cccc(C)c4)ccc3n2C(C)C)CC1`, the “growth rescue (activation)” value is inactive: 8.48%.

In the case of `COC(=O)CN1C(=S)N(c2ccc(F)cc2)C(=O)C1CC(=O)Nc1ccc(F)cc1` (stereo unspecified), the “growth rescue (activation)” value was inactive: -4.77%.

For `O=C(Nc1ccccc1C(=O)O)c1cc(S(=O)(=O)N2CCOCC2)cs1`, the “growth rescue (activation)” value is inactive: 8.62%.

On to `O=C(c1cc(-c2ccncc2)nc2ccccc12)N1CCN(Cc2ccccc2)CC1`, for which the “growth rescue (activation)” value was inactive: 2.69%.

Take `CC1(C(=O)NS(=O)(=O)c2ccc(Cl)cc2)CCN1C(=O)Cc1cc(F)ccc1F` (stereo unspecified): the “growth rescue (activation)” value is inactive: 14%.

In the case of `O=C(Nc1cccnc1)c1cccc(NC(=O)c2ccco2)c1`, the “growth rescue (activation)” value was inactive: -11.9%.

Take `O=C(COC(=O)/C=C/c1cc(Br)ccc1F)NC1CC1`: the “growth rescue (activation)” value is inactive: -2.94%.

For the molecule `CCOC(=O)CC(NC(=O)CCc1c(C)nc2ncnn2c1C)c1ccc(C)cc1` (stereo unspecified), the “growth rescue (activation)” value is inactive: -0.569%.

As to `Cc1csc(NC(=O)[C@@H](NC(=O)c2ccccc2)C(C)C)n1`, the “growth rescue (activation)” value is inactive: 7.48%.

With `COc1cccc(NC(=O)C2CCCN(S(=O)(=O)c3cccc4nonc34)C2)c1` (stereo unspecified), the “growth rescue (activation)” value is inactive: -2.78%.

Consider `Cc1ccc(C(=O)NCCCNc2ccc(C(F)(F)F)cc2[N+](=O)[O-])cc1`, for which the “growth rescue (activation)” value was inactive: 0.784%.

Turning to `Oc1ccccc1Nc1nc2ccccc2n2nnnc12`, the “growth rescue (activation)” value was inactive: 5.14%.

For `CC(C)[C@H](NS(=O)(=O)c1ccccc1)C(=O)OCC(=O)NCc1ccc2c(c1)OCO2`, the “growth rescue (activation)” value was inactive: 0.697%.

With `Cc1[nH]c2ccccc2c1N=Nc1c(C)n(C)n(-c2ccccc2)c1=O`, the “growth rescue (activation)” value was inactive: 13.4%.

`COc1ccc(-c2[nH]ncc2CN(Cc2nccn2C)C(C)C)c(F)c1`: the “growth rescue (activation)” value was inactive: -3.89%.

For the molecule `O=C(c1cccc(S(=O)(=O)N2CCCc3ccccc32)c1)N1CCN(c2ccccc2)CC1`, the “growth rescue (activation)” value is inactive: 29.2%.

Regarding `CCN(CC)CCOC(=O)c1ccc(NC(=O)CNC(=O)C2CCCCC2)cc1`, the “growth rescue (activation)” value is inactive: -0.391%.

For `COc1ccc(O)c(C2=Nc3ccccc3N=C(c3ccccc3)C2)c1`, the “growth rescue (activation)” value is inactive: 9.17%.

For the molecule `Cc1cc(C)nc(NC2=NCC(=O)N2c2ccc(F)c(Cl)c2)n1`, the “growth rescue (activation)” value was inactive: -3.65%.

Regarding `O=C(O)c1cc(NC(=O)c2ccc([N+](=O)[O-])cc2)cc(NC(=O)c2ccc([N+](=O)[O-])cc2)c1`, the “growth rescue (activation)” value is inactive: 2.1%.

Turning to `N=C1C(c2ccccc2)=C(O)CN1c1cccc(S(N)(=O)=O)c1`, the “growth rescue (activation)” value is inactive: 0.936%.

As to `CC(=O)Nc1cc(-c2ccc(S(C)(=O)=O)cc2)cn2c(-c3ccc(F)cc3)cnc12`, the “growth rescue (activation)” value was inactive: -6.38%.

Consider `O=C(CNCc1ccccc1Cl)NCc1ccco1`, for which the “growth rescue (activation)” value is inactive: 8.47%.

With `CC(C)c1cccc(-c2csc(C(O)c3ccc(F)cc3)n2)c1` (stereo unspecified), the “growth rescue (activation)” value is inactive: -6.87%.

For `CC1N(C(=O)N2CCOCC2)CCN1S(=O)(=O)c1ccc(Cl)cc1` (stereo unspecified), the “growth rescue (activation)” value was inactive: -7.09%.

Take `CCCn1ncc(CN2CCN(Cc3ccsc3)C(CCO)C2)c1C` (stereo unspecified): the “growth rescue (activation)” value is inactive: -5.8%.

Turning to `Cc1cccc(Nc2nc(N)c([N+](=O)[O-])c(N3CCCC(C)C3)n2)c1` (stereo unspecified), the “growth rescue (activation)” value is inactive: -93%.

Regarding `Cc1cccc(C(=O)Nc2ccccc2C(=O)Nc2ccc(C(=O)O)cc2)c1`, the “growth rescue (activation)” value is inactive: -1.67%.

Take `Cc1cccn2c(=O)c3cc(C(=O)NCC4CCCO4)c(=N)n(Cc4cccnc4)c3nc12` (stereo unspecified): the “growth rescue (activation)” value was inactive: 3.41%.

Consider `Cc1ccc(C)c(S(=O)(=O)NCCCN2CCOCC2)c1`, for which the “growth rescue (activation)” value was inactive: -0.693%.

For `COCCSc1nnc(NC(=O)C2CCN(C(=O)c3ccco3)CC2)s1`, the “growth rescue (activation)” value is inactive: 6.15%.

On to `COC(=O)C1=CN(Cc2ccc(C)cc2)C=C(C(=O)OC)C1c1ccc(F)c(F)c1`, for which the “growth rescue (activation)” value was inactive: -3.28%.

`CCC(CC)c1nnc(NC(=O)CN2C(=O)c3ccccc3C2=O)s1`: the “growth rescue (activation)” value is inactive: -8.36%.

The record behind these values is PubChem BioAssay AID1347073 (National Center for Advancing Translational Sciences (NCATS), 2019).
